Reference: the supplement of paper PMC12217912
Some of the results follow. Sequences were assembled here from the parent chain. Inactive controls read about 0.05.

B1: TEV protease; numbered along this chain (parent)
chain: MGESLFKGPRDYNPISSSICHLTNESDGHTTSLYGIGFGPFIITNKHLFRRNNGTLVVQSLHGVFKVKDTTTLQQHLVDGRDMIIIRMPKDFPPFPQKLKFREPQREERICLVTTNFQTKSMSSMVSDTSCTFPSGDGIFWKHWIQTKDGQCGSPLVSTRDGFIVGIHSASNFTNTNNYFTSVPKNFMELLTNQEAQQWVSGWRLNADSVLWGGHKVFMVKPEEPFQPVKEATQL

Variants of: B1
Assay: raw area under fraction-flipped curve 0-4 h after induction (AUC4h, not background-subtracted), DNA-recorder readout of cleavage of the substrate (dimensionless); higher = more cleavage of the substrate by the protease variant
Conditions: temperature: 34 °C; time window: 0-4 h after rhamnose induction
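Also: Bxb1 expression induced with 0.2% (w/v) L-rhamnose at OD600 near 0.5, cultures sampled hourly, flipped fraction per protease–substrate barcode pair counted by paired-end Illumina sequencing.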

Variant	area with substrate ENLYFQF	area with substrate ENLYFQG	area with substrate ENLYFQL	area with substrate ENLYFQR	area with substrate ENLYFQS	area with substrate ENLYFQV	area with substrate ENLYFQW	area with substrate ENLYFQY	area with substrate ENLYFQD	area with substrate ENLYFQK
S154Q	0.0686	0.0779	0.0707	0.0453	0.088	0.0504	0.0715	0.0562		
N178F		0.145	0.126		0.204	0.0766			0.164	0.0836
N178V			0.0583	0.0585	0.0744	0.0496			0.0575	0.0551
P9H	0.0882	0.112		0.0571	0.115			0.0954		0.0639
T129E	0.0587			0.0507	0.0951			0.0557		0.0711
N116M				0.0562	0.1	0.0623				
H143M	0.0258	0.0743	0.0614	0.0648	0.0745			0.0554	0.0646	0.0657
Y34K	0.0728	0.0886	0.059		0.0911		0.0465			
Y34N	0.0919	0.0769		0.0612	0.0919			0.0669		
E107F	0.081			0.0577	0.0911		0.0856			0.0735
V157I		0.11	0.0757	0.0494	0.0979		0.0564		0.0653	0.0521
F6K	0.0628		0.0645		0.0928	0.0825		0.0897		0.0516
F173R	0.042		0.0627		0.0919		0.0634			0.0631
L235N		0.0929	0.0615	0.0509	0.103	0.0671			0.0855	
L235I			0.0865	0.0529	0.0994		0.0655		0.0678	0.0798
T174V		0.0691		0.0523	0.0784		0.0634	0.0531	0.074	
G80F		0.0606			0.102					0.0701
T159R	0.108		0.0459		0.117		0.0544		0.0811	0.0758
T159A		0.0875	0.0619		0.0896		0.0862			
K66C			0.063	0.0731	0.11	0.0617				

Same assay, conditions: temperature: 34 °C; time window: 0-4 h after rhamnose induction

Variant	area with substrate ENLYFQT	area with substrate ENLYFQH	area with substrate ENLYFQN	area with substrate ENLYFQP	area with substrate ENLYFQM	area with substrate ENLYFQE	area with substrate ENLYFQI	area with substrate ENLYFQQ
N178F	0.147							
N178V		0.0234	0.0609	0.0617				
P9H	0.061			0.0552	0.0994			
T129E			0.07		0.0997			
N116M		0.0939	0.0852	0.073		0.0726		
H143M	0.0638			0.0656	0.0374		0.0584	0.0805
Y34N			0.0783		0.0771			
V157I		0.089	0.0953		0.0891			
F6K	0.0539				0.0745			
F173R	0.0737			0.068			0.0522	0.0668
L235N		0.0719	0.0756	0.0371			0.0493	
L235I	0.0785			0.0669	0.0865		0.0682	
T174V	0.0615		0.0605	0.0473	0.0727			
G80F	0.0683	0.101	0.0987		0.0843			
T159R	0.0672		0.0846		0.0846			
T159A	0.0616	0.0545			0.108	0.0571		
K66C			0.0797	0.0562	0.101	0.0659		
